Reference: article PMC4336329 (PLoS ONE, 2015)
Hit rate of the full screen: of about 310,000 compounds, about 2,200 (0.71%) showed an effect of 50% or more. Effects have a minus sign here. Some of the results follow.

target: human ether-à-go-go-related gene (hERG) potassium channel (human, UniProt Q12809); test: primary screen, population patch clamp on CHO cells stably expressing hERG
Sequence (Q12809 whole entry, looked up): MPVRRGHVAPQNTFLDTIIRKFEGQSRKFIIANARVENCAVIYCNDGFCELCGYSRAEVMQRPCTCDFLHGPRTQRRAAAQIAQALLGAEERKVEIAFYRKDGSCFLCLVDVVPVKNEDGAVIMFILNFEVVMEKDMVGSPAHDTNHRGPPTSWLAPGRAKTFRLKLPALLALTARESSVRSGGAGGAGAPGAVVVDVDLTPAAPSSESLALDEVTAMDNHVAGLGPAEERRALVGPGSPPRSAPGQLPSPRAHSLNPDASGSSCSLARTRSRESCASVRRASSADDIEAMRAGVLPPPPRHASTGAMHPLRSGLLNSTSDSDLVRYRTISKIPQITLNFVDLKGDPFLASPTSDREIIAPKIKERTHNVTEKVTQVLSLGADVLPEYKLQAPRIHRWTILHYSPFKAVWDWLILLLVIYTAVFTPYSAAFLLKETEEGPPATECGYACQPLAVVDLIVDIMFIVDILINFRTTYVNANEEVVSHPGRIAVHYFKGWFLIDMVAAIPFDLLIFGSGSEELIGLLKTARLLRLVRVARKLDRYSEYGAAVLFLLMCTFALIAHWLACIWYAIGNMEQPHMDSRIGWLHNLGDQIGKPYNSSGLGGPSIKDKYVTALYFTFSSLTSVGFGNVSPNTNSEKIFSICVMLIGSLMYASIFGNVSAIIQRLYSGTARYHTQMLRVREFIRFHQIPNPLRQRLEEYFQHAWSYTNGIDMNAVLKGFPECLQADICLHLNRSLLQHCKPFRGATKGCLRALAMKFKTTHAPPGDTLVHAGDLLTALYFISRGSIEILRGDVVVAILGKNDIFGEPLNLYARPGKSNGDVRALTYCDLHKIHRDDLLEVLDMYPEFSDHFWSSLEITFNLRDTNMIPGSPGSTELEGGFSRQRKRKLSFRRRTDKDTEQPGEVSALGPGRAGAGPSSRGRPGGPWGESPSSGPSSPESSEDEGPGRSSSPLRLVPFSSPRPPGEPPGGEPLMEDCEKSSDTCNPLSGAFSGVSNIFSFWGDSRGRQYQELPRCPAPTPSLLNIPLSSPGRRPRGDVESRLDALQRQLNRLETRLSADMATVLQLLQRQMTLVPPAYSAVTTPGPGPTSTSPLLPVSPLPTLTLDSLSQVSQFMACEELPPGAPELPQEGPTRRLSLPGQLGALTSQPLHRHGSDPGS

Structure (SMILES) | hERG current change (%, negative = inhibition) at 1uM
COc1ccc(/C=C/C(=O)OCC(=O)Nc2ccc3[nH]c(=O)[nH]c3c2)cc1OC | 1.26%
Cc1c(C(=O)O)c(=O)n(-c2ccccc2)n1-c1ccccc1 | 4.38%
NC(N)=N/N=C/c1ccc(Cl)c([N+](=O)[O-])c1 | 4.46%
COc1cc(S(=O)(=O)Nc2ccc(C)cc2)ccc1NC(=O)c1ccncc1 | 7.08%
CN(c1ccccc1)S(=O)(=O)c1cccc(C(=O)NNC(=O)c2ccccc2)c1 | 4.84%
Cc1noc(/C=C/N(C)C)c1S(=O)(=O)N1CCCC(C(=O)Nc2ccc3c(c2)OCO3)C1 (centres unmarked) | 6.94%
CCO[C@@H]1OC(C(=O)NCc2ccccc2)=C[C@H](C(C)(C)C)[C@H]1CCCO | 6.9%
CCOC(=O)CSc1nnc(C)n1N | 11.2%
c1ccc(-c2ccc3c(n2)CCCO3)cc1 | 0.108%
CCC(=O)N1CCc2cc(S(=O)(=O)CCC(=O)NCCc3ccccc3)ccc21 | 22.9%
N#Cc1ccccc1NC(=O)COC(=O)CCc1ccccc1 | 4.53%
CP(=O)(Nc1ccccc1)C(Cl)(Cl)Cl (centres unmarked) | 9.06%
Cc1ccc(C)c(N(C(=O)Cn2nnc(-c3cccs3)n2)C(C(=O)NC2CCCC2)c2ccncc2)c1 (centres unmarked) | -0.65%
COc1ccc([C@H]2CC(=O)C=C(c3cccc4c3sc3ccccc34)C2)cc1OC | 6.24%
O=C1Nc2cc(Cl)ccc2C1(N1CCNCC1)C(F)(F)F (centres unmarked) | -0.156%
CC(C)CCOP(=O)(c1ccccc1)c1ccccc1 | 4.06%
COc1c(/C=N/NC(=O)c2ccncc2)c(CCN(C)C(C)=O)cc2c1OCO2 | 14.1%
CCOC(=O)C1(CCCc2ccccc2)CCN(C(=O)CCCn2cncn2)CC1 | -13.5%
COc1ccc(-c2cn3cccnc3n2)cc1NC(=O)C1CC1 | 2.63%
COc1ccc(-n2nc3c(c2NC(=O)c2ccc(Br)o2)CS(=O)(=O)C3)cc1 | 0.428%
CCCc1[nH]nc2c1C(c1cccnc1)C(C#N)=C(N)O2 (centres unmarked) | 12%
c1ccn2c(SCc3ccc4c(c3)OCCO4)nnc2c1 | 2%

Structure (SMILES) | hERG current change (%, negative = inhibition) at 1uM
O=C(/C=C/c1ccccc1Cl)c1ccc[nH]1 | 4.48%
COc1c(-c2ccc(O)cc2)oc2cc(O)cc(O)c2c1=O | 7.05%
COc1ccc(NC(=O)c2ccccc2[N+](=O)[O-])cc1OC | 7.44%
CCc1ccc(-n2nc3cc(C)c(N)cc3n2)cc1 | 13.3%
CCCCNC(=O)c1onc(CSc2ccc(C(C)C)cc2)c1C(=O)O | 9.78%
O=S(NCc1ccco1)C12CC3CC(CC(C3)C1)C2 (centres unmarked) | 4.43%
COc1cccc(CNn2cnnc2)c1OCc1ccc(F)cc1 | 14.5%
COc1cc2cc(NC(C)=O)cc(NCc3ccccc3)c2cc1OC | 15.4%
CCCn1nnc(NC(=O)c2cc(Br)cc(Br)c2OC)n1 | -3.33%
Cc1cc(S(=O)(=O)N2CCOCC2)ccc1OCC(=O)NCc1ccccn1 | 5.16%
Cc1nc2ccccn2c1C(=O)OCC#N | 8.89%
C=CCNC(=O)/C(C#N)=C/c1ccc(SC)cc1 | -1.94%
Clc1ccc(-c2nnc(-c3ccco3)nc2N2CCCCC2)cc1 | 19.4%
CCCOc1ccc(C(=O)NNC(=S)NC(=O)c2ccccc2[N+](=O)[O-])cc1 | 13.3%
CCCC[C@H](CN(N=O)[C@@H](Cc1ccccc1)CN(C)N=O)N(CCc1ccccc1)N=O.[Na+] | 20.9%
Cc1cc(F)c(F)cc1C(=O)N1CCCC1 | 13.9%
Fc1cccc(Cl)c1Cn1nnc(-c2ccc(N3CCOCC3)cc2)n1 | 14.5%
Cc1ccc(NC(=O)CSCC(=O)N2CCN(C(=O)c3ccco3)CC2)cc1 | 3.41%
CCCC(=O)Nc1nc(C)c(-c2csc(Nc3cc(OC)ccc3OC)n2)s1 | 12.4%
Cc1cc(C)n(/N=C/c2ccc(O)cc2)c(=O)c1C#N | 11%
CN(C)S(=O)(=O)c1ccc(C(=O)OCC(=O)c2ccc(OC(F)F)cc2OC(F)F)cc1 | 1.74%
Cc1ccc(S(=O)(=O)N(C)C)cc1NC(=O)COC(=O)c1n[nH]c(=O)c2ccccc12 | -20.1%
